# Source: the supplement of paper PMC8728848
# The list shows a part of the results.
# How the values were obtained:
# Test in all cases: glycan array binding signal (z-score within array); higher = stronger binding
# Settings in all cases: glycan notation: IUPAC condensed, linker removed
# [1] = target: Gal(a1-6)Glc
# Outline: (§1)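 Columns mapping to the same glycan were averaged after glycan names were converted to IUPAC-condensed notation. The data come from 3228 arrays in the Consortium for Functional Glycomics database, limited to those with an available protein sequence. Binding is reported as a within-array Z-score averaged across arrays of one protein sequence and across linkers.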
# [2] = target: Gal(b1-2)Gal
# Outline: as §1
# [3] = target: Gal(b1-3)Gal
# Outline: as §1
# [4] = target: Gal(b1-3)Gal(b1-4)GlcNAc
# Outline: as §1
# [5] = target: Gal(b1-3)GalNAc
# Outline: as §1
# [6] = target: Gal(b1-3)GalNAc(a1-3)[Fuc(a1-2)]Gal(b1-4)Glc
# Outline: as §1
# [7] = target: Gal(b1-3)GalNAc(a1-3)[Fuc(a1-2)]Gal(b1-4)GlcNAc
# Outline: as §1
# [8] = target: Gal(b1-3)GalNAc(b1-3)Gal
# Outline: as §1
# [9] = target: Gal(b1-3)GalNAc(b1-3)Gal(a1-4)Gal(b1-4)Glc
# Outline: as §1
# [10] = target: Gal(b1-3)GalNAc(b1-4)Gal(b1-4)Glc
# Outline: as §1
# [11] = target: Gal(b1-3)GalNAc(b1-4)[Neu5Ac(a2-3)]Gal(b1-4)Glc
# Outline: as §1
# [12] = target: Gal(b1-3)GlcNAc
# Outline: as §1
# [13] = target: Gal(b1-3)GlcNAc(a1-3)Gal(b1-4)GlcNAc
# Outline: as §1
# [14] = target: Gal(b1-3)GlcNAc(a1-6)Gal(b1-4)GlcNAc
# Outline: as §1
# [15] = target: Gal(b1-3)GlcNAc(b1-2)Man
# Outline: as §1
# [16] = target: Gal(b1-3)GlcNAc(b1-2)Man(a1-3)[Gal(b1-3)GlcNAc(b1-2)Man(a1-6)]Man(b1-4)GlcNAc(b1-4)GlcNAc
# Outline: as §1
# [17] = target: Gal(b1-3)GlcNAc(b1-2)Man(a1-3)[Gal(b1-3)GlcNAc(b1-2)Man(a1-6)]Man(b1-4)GlcNAc(b1-4)[Fuc(a1-6)]GlcNAc
# Outline: as §1
# [18] = target: Gal(b1-3)GlcNAc(b1-2)Man(a1-3)[GlcNAc(b1-4)][Gal(b1-3)GlcNAc(b1-2)Man(a1-6)]Man(b1-4)GlcNAc(b1-4)GlcNAc
# Outline: as §1
# [19] = target: Gal(b1-3)GlcNAc(b1-2)[Gal(b1-3)GlcNAc(b1-6)]Man(a1-6)[Gal(b1-3)GlcNAc(b1-2)Man(a1-3)]Man(b1-4)GlcNAc(b1-4)GlcNAc
# Outline: as §1
# [20] = target: Gal(b1-3)GlcNAc(b1-3)Gal(b1-3)GlcNAc
# Outline: as §1
# [21] = target: Gal(b1-3)GlcNAc(b1-3)Gal(b1-4)Glc
# Outline: as §1
# [22] = target: Gal(b1-3)GlcNAc(b1-3)Gal(b1-4)GlcNAc
# Outline: as §1
# [23] = target: Gal(b1-3)GlcNAc(b1-3)Gal(b1-4)GlcNAc(b1-2)Man(a1-3)[Gal(b1-3)GlcNAc(b1-3)Gal(b1-4)GlcNAc(b1-2)Man(a1-6)]Man(b1-4)GlcNAc(b1-4)GlcNAc
# Outline: as §1
# [24] = target: Gal(b1-3)GlcNAc(b1-3)Gal(b1-4)GlcNAc(b1-2)[Gal(b1-3)GlcNAc(b1-3)Gal(b1-4)GlcNAc(b1-6)]Man(a1-6)[Gal(b1-3)GlcNAc(b1-3)Gal(b1-4)GlcNAc(b1-2)Man(a1-3)]Man(b1-4)GlcNAc(b1-4)[Fuc(a1-6)]GlcNAc
# Outline: as §1
# [25] = target: Gal(b1-3)GlcNAc(b1-3)Gal(b1-4)GlcNAc(b1-3)Gal(b1-4)GlcNAc(b1-2)[Gal(b1-3)GlcNAc(b1-3)Gal(b1-4)GlcNAc(b1-3)Gal(b1-4)GlcNAc(b1-6)]Man(a1-6)[Gal(b1-3)GlcNAc(b1-3)Gal(b1-4)GlcNAc(b1-3)Gal(b1-4)GlcNAc(b1-2)Man(a1-3)]Man(b1-4)GlcNAc(b1-4)[Fuc(a1-6)]GlcNAc
# Outline: as §1
# [26] = target: Gal(b1-3)GlcNAc(b1-3)Gal(b1-4)GlcNAc(b1-6)[Gal(b1-3)GlcNAc(b1-3)]Gal(b1-4)Glc
# Outline: as §1
# [27] = target: Gal(b1-3)GlcNAc(b1-3)Gal(b1-4)[Fuc(a1-3)]GlcNAc
# Outline: as §1
# [28] = target: Gal(b1-3)GlcNAc(b1-3)Gal(b1-4)[Fuc(a1-3)]GlcNAc(b1-6)[Gal(b1-3)GlcNAc(b1-3)]Gal(b1-4)Glc
# Outline: as §1
# [29] = target: Gal(b1-3)GlcNAc(b1-3)GalNAc
# Outline: as §1
# [30] = target: Gal(b1-3)GlcNAc(b1-6)Gal(b1-4)GlcNAc
# Outline: as §1
# [31] = target: Gal(b1-3)GlcNAc(b1-6)GalNAc
# Outline: as §1
# [32] = target: Gal(b1-3)GlcNAc(b1-6)[Gal(b1-3)]GalNAc
# Outline: as §1
# [33] = target: Gal(b1-3)GlcNAc6S
# Outline: as §1
# [34] = target: Gal(b1-3)[Fuc(a1-4)]GlcNAc
# Outline: as §1
# [35] = target: Gal(b1-3)[Fuc(a1-4)]GlcNAc(b1-2)Man
# Outline: as §1
# [36] = target: Gal(b1-3)[Fuc(a1-4)]GlcNAc(b1-2)Man(a1-3)[Gal(b1-3)[Fuc(a1-4)]GlcNAc(b1-2)Man(a1-6)]Man(b1-4)GlcNAc(b1-4)[Fuc(a1-6)]GlcNAc
# Outline: as §1
# [37] = target: Gal(b1-3)[Fuc(a1-4)]GlcNAc(b1-3)Gal(b1-3)[Fuc(a1-4)]GlcNAc
# Outline: as §1
# [38] = target: Gal(b1-3)[Fuc(a1-4)]GlcNAc(b1-3)Gal(b1-4)[Fuc(a1-3)]GlcNAc
# Outline: as §1
# [39] = target: Gal(b1-3)[Fuc(a1-4)]GlcNAc(b1-6)GalNAc
# Outline: as §1
# [40] = target: Gal(b1-3)[GlcNAc(b1-6)]GalNAc
# Outline: as §1
# [41] = target: Gal(b1-3)[Neu5Ac(a2-6)]GalNAc
# Outline: as §1
# [42] = target: Gal(b1-3)[Neu5Ac(a2-6)]GlcNAc(b1-4)Gal(b1-4)Glc
# Outline: as §1
# [43] = target: Gal(b1-3)[Neu5Ac(b2-6)]GalNAc
# Outline: as §1
# [44] = target: Gal(b1-4)Gal
# Outline: as §1
# [45] = target: Gal(b1-4)GalNAc(a1-3)[Fuc(a1-2)]Gal(b1-4)GlcNAc
# Outline: as §1
binder,measurement,setting,value
CpGal16 (Clavelina picta) (protein) MAKMITNYVGKRIECIMVATDMMSTVFSLASATGDLPFYINFRQRENSIVMNTRVHGKWQYEKSQSSGGMNFYEPFRLVVEVRPSVFKVTVSTMGEEDGITFNLQYSQITIKPDEIVAMHLGYCNLRSELLVTDL,glycan array binding signal (z-score),[1],-0.353
same,glycan array binding signal (z-score),[2],-0.316
same,glycan array binding signal (z-score),[3],-0.285
same,glycan array binding signal (z-score),[4],0.05
same,glycan array binding signal (z-score),[5],-0.391
same,glycan array binding signal (z-score),[6],1.88
same,glycan array binding signal (z-score),[7],1.11
same,glycan array binding signal (z-score),[8],-0.529
same,glycan array binding signal (z-score),[9],-0.233
same,glycan array binding signal (z-score),[10],-0.404
same,glycan array binding signal (z-score),[11],-0.454
same,glycan array binding signal (z-score),[12],0.703
same,glycan array binding signal (z-score),[13],1.46
same,glycan array binding signal (z-score),[14],0.048
same,glycan array binding signal (z-score),[15],0.015
same,glycan array binding signal (z-score),[16],1.83
same,glycan array binding signal (z-score),[17],0.609
same,glycan array binding signal (z-score),[18],2.87
same,glycan array binding signal (z-score),[19],1.83
same,glycan array binding signal (z-score),[20],1.61
same,glycan array binding signal (z-score),[21],0.915
same,glycan array binding signal (z-score),[22],1.29
same,glycan array binding signal (z-score),[23],3.83
same,glycan array binding signal (z-score),[24],3.99
same,glycan array binding signal (z-score),[25],4.48
same,glycan array binding signal (z-score),[26],2.57
same,glycan array binding signal (z-score),[27],1.1
same,glycan array binding signal (z-score),[28],3.33
same,glycan array binding signal (z-score),[29],0.241
same,glycan array binding signal (z-score),[30],0.847
same,glycan array binding signal (z-score),[31],1.26
same,glycan array binding signal (z-score),[32],0.952
same,glycan array binding signal (z-score),[33],-0.144
same,glycan array binding signal (z-score),[34],-0.302
same,glycan array binding signal (z-score),[35],-0.25
same,glycan array binding signal (z-score),[36],-0.368
same,glycan array binding signal (z-score),[37],-0.449
same,glycan array binding signal (z-score),[38],-0.437
same,glycan array binding signal (z-score),[39],-0.27
same,glycan array binding signal (z-score),[40],-0.334
same,glycan array binding signal (z-score),[41],-0.439
same,glycan array binding signal (z-score),[42],0.438
same,glycan array binding signal (z-score),[43],-0.481
same,glycan array binding signal (z-score),[44],-0.414
same,glycan array binding signal (z-score),[45],1.04
